The source gives no read counts; variants with many changes may rest on few reads.
B1: CPEB3 Ribozyme (parent)
chain: UAACAGGGGGCCACAGCAGAAGCGUUCACGUCGCAGCCCCUGUCAGAUUCUGGUGAAUCUGCGAAUUCUGCUGUAUAUCUC

Variants of: B1
Assay: self-cleavage, relative activity (ratio to wild type); higher = more cleavage; in vitro, sequencing
Procedure, shortened: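 Relative activity was defined as the cleaved/total read fraction for a variant divided by the same fraction for the unmutated ribozyme. CPEB3 self-cleaving ribozyme libraries were made by rounds of error-prone PCR, barcoded, and transcribed in vitro with T7 RNA polymerase for 5 hours at 37°C, and cleavage ran through transcription plus a 15 min DNase I step before EDTA. Illumina sequencing of template-switched reverse transcripts gave the reads, and DNA sequencing mapped the barcodes. Averages come from three batches, using variants with at least 5 reads.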

Row | Variant | self-cleavage
1 | UAGCAGGGGGCCACAGCAGAAGCGUUCGCGUCGCUGCCCCUGUCAGAUUCUGGUGAAUCUGCGAAUUCUGCUGUAUAUCUC | 0.22
2 | UAGUGGGGGGCCACAGCAGAAGCGUUCACGUCGCCGCCCCUGUCAGAUUCUGGUGAAUCUGCGGAUCCCGCUGUAUAUCUC | 0.25
3 | UAGGAGGGGGCCACUGCAGAAGCGUCCACGUCGCAGCCCCUGUCAGAUUCUGGCGAAUCCGCGAAUUCUGCUGUAUAUCUC | 0.34
4 | UAGCAGGGGGCCAUAGCAAAAGCGUUCACGUCGCAGCCCCUGCCUGAUUCUGGUGAACCUGCGAAUUCUGCCGUAUAUCUC | 0.06
5 | UAGCAGGGGGCCACAGCAGAUGCGUUCACGUCGCAGCCCCUGUCAGAUACUGGUGAAUCUGCGAAUUCUGCUGUAUAUCUC | 0.58
6 | UAGCAGGGGGCCACAGCAGAAGCGUUCACGUCGCAGCCCCUGUCAGAUUCUGGUGAAUCUGCGUAUUCUGCUGUAGAUCUC | 0.12
7 | UAGCAGGGGGCCACAGCAGAAGCGUUCGCGUCGCAGCACCUGUCAGGUUCUGGUGAAUCUGCGAAUUAUGCUGUAUAUCUC | 0.22
8 | UAGCAGGGGGGCUCAGCAGAAGCGUUCACGUCGCAGCCCCUGUCAGAUUCUUGUGAAUCUACGAAUUCCGCUGUAUAUCAC | 0.13
9 | UAGCAGGGGGCCACAGCAGAAGCGUUCACGUCGCAGCCCCUGUCGGAUUCCGGUGAAUCUGCGAAUUCUGCUGCAUAUCCC | 1
10 | UAGCAGGGGGGCACAGCAGAAGCGCUCACGACGCAGCCCCUGUCAGAUUCUGGUGAAUCCGCGAAUUCUGCUGUAUAUCUC | 0.05
11 | UAGCAGGGGGCCACAGCAGAAGAGUUCACGUCGCAGCCCCUGUCAGAUUCUGGUGAAUCUGCGAAUUCUGCCGUAUAUCUC | 0.62
12 | UAGCAGGGGGCCACAGCAGAAGCGUUAAAGUCGCAGCCCCUGUCAGAUUCUGGUGAAUCUGCGAAUUCUGCUGUAUAUCUC | 0.47
13 | UAGCAGGGGGCCACAGCAGAAGCGUUCACGUCGCUGCCCCUGUCAGAUUCUGGUGAAUCUGCGUAUCCUGCUGUAUAUCUC | 0.29
14 | UAGCAGGGGGCCACAGCAGAAGCGUUCACGUCGCUGCCCCUGUCAGAUUCUGGUGAAUCUGCGUAUUCUGCUGUAAACCUC | 0.16
15 | UAGCAGGGGGCCACAGCAGAAGCGUUCACGUCGCAGCCCCUGUCAGAUUCUGGUGUAUCUGCGAAUUCUGCUGUAUAUCAC | 0.31
16 | UAGCAGGGGGCCACAGCAGAAGCGUUCACGUCGCUGCCCCUGUCAGAUUCUGGAGAAUCUGCGAAUUCUCCUGUAUGUCUC | 0.24
17 | UAGCAGGGGGCCACAGCAGAAGCGUUCCCGUCGCAGCCCCCGUCAGAUUCUGGUGAAUCUGCGAAAUCUGCUGUAUAUCUC | 0.19

Row | Variant | self-cleavage
18 | UAGCAGGGGGCCACAGCAGAAGCGUUCACGUCGCAGCCCCUGUCAGUUUCUGGCGAAUCUGCGGAUUCUGCUGUAUAUCUC | 0.25
19 | UAGCAGGGGGCCACAGCAGAAGCGUUCACGUCGCAGCCCCUGUCUGAUUCUGGUGAUUCUGCGAAUUCUGCUGUAUACCUC | 0.11
20 | UAGCAGGGGGCCACAGCAGAAGCGUUCACGUCGCAGCCCCUGUCGGAUUCUGGCGAAUCUGCGAAUUCUGCUGUAUAUCUC | 1.09
21 | UAGCAGGGGGCCACAGCAGAAGCGUUCACGUCGCAGCCCCUGUCGGAUUCAGGUGAAUCUGCGAAUUCUGCUGUAUAUCCC | 0.69
22 | UAGUAGGGGACCACAGCAGAAGCGUUCACGUCGCAGCCCCUGUCAGAUUCUGGUGAAUCUGCGAAAUCUGCUGUAUAUCUC | 0.31
23 | UAGCAGGGGGCCACAGCAGAAGCGUUUACGCCGAAGCCCCUGUCCGAUUCUGGUGAAUCUGCCAAUUCCGCUGUAUAUCUC | 0.21
24 | UAGCAGGGGGCCACAGCAGAAGCGUUCACGUCGCAGCCCCUGUCAGAUUCUGGUGAAUCUGCGGUUUCUGCUGUAUAUCUC | 0.15
25 | UAGCAGGGGGCCACAGCAGAAGCGUUCACGUCGCAGCCCCUGUCAGGUUCUGGUGAAUCUGCGAAUUCUGCUGUAUACCUC | 0.79
26 | UAGCAGGGGGCCACAGCAGAAGCGUUCGCGUCGCAGCCCCCGUCUGAUUCUGGUGAAUCUGCGAAUUCUGCUGUAUAUCUC | 0.69
27 | UAGCAGGGGGCCACAGCAGAAGCGUUCACGUCGCGGCCCCUGUCAGGUUCUGGUGAAUCUGCGAAUUCUGCCGUAUAUCUC | 1.23
28 | UAGCAGGGGGCCACAGCAGAAGCGUUCGCGUCGCAGCCCCUGUCAGAUUCUGGUGAAUCUGCGUAUUCUGCUGUAUAUCUC | 0.36
29 | UAGCAGGGGGCCACAGCAGAAGCGUUCACGUCGCAGCCCCUGUCAGUCUCUGGUGAAUCUGCGGAUUCUGCUGUAUAUCUC | 0.22
30 | UAGCAGGGGGCCAUAGCAGAUGCGUUCACGUCGCAGCCCCUGGCAGAUUCUGGUGAAUCUGCGAAUUCUGCUGUAUAUCUC | 0.48
31 | UAGCAGGGGGCCACAGCAGAAGCGUUCACGUCGCCGCCCCUGUCAGAUUGCGGUGAAUCUGCGAAUACUGCCGUAUAUCUC | 0.27
32 | UAGCAGGGGGCACCAGCAGAAGCGUUCAUGUCGCGGCCCCUGUCAGAUUCUGGUGAAUCUGCGAAUUCUGCUGUAUAUCUC | 0.46
33 | UAGCAGGGGGCCACAGCAGAAGCGUUCACGUCGCUGCCCCUGUCAGAUUCUGGAGGAUCUGCGGAUUCUGCUGUAUAUCUC | 0.44
34 | UAGCAGGGGGCCACAGUAGAAGCGUUCACGUCGCAGCCCCUGUCAGAUUCUGGCGAAUCUGCGAGUUCUGCUGUAUAUCUC | 0.35
